Hit rate of the full screen: of about 110,000 compounds, about 610 (0.55%) were called active. The shares of active, inactive and inconclusive entries below differ from those in the screen. Calls follow the shape of the dose curve; as a rule, active = well fitted inhibition curve with a large enough effect; inconclusive = small, poorly fitted or top-dose-only effect; inactive = no such curve, though single readings can be large or run the other way. Where the call is inconclusive, the potency comes from a doubtful curve fit.
What follows are compounds tested against Polyunsaturated fatty acid lipoxygenase ALOX15B (Homo sapiens) (UniProt O15296) (assay: qHTS Assay for Inhibitors of 15-hLO-2 (15-human lipoxygenase 2)). Details: purified 15hLO-2, xylenol orange hydroperoxide absorbance; activity change, negative = inhibition: at 57.1 µM (top of the series) unless noted.
Chain of UniProt O15296 (O15296 whole entry, looked up): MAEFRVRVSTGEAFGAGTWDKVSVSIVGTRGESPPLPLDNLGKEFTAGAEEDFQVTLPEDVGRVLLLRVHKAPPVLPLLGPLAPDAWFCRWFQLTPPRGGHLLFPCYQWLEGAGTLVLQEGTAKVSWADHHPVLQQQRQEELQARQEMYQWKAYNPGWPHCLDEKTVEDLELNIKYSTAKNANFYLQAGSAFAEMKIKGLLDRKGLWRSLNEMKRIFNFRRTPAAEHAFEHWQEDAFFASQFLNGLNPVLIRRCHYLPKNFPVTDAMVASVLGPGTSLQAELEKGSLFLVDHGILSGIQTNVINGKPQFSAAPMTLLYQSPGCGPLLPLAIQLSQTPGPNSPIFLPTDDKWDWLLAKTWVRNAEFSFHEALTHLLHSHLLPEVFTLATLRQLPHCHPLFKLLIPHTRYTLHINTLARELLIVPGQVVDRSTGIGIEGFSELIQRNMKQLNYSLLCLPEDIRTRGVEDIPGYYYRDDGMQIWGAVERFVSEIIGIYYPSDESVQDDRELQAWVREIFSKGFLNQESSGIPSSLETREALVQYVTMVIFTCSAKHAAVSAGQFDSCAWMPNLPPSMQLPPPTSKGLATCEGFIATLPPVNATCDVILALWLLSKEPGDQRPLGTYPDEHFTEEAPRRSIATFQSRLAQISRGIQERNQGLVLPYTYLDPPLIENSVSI
Procedure, shortened: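 Purified human 15hLO-2 (50 nM final) preincubated with compounds 15 min at room temperature in 25 mM Hepes pH 7.5, 0.01% Triton X-100, then 45 uM arachidonic acid added for 90 min; hydroperoxide detected via ferrous/xylenol orange, 573/405 nm absorbance ratio.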
% is scaled to controls: 0 for no effect and ±100 for the full control effect; potency is read from the fitted curve at half-maximal effect; tags tell the direction and shape of the fitted curve.
Also: nearly all actives have a fitted effect of over 60% in size.

Structure (SMILES)	Potency	activity change, negative = inhibition
COc1ccc(C(=O)OC(C)CN2CCN(C)CC2)cc1OC (stereo not given)	inconclusive: 0.199 µM [inhibitor, full curve]	–
COCCNC(=O)C(c1cccc(OC)c1)N(C(=O)Cn1nnc2ccccc21)c1cccnc1 (stereo not given)	–	inactive: 1.26%
COC(=O)C(C(=O)OC)=C(/C=C/C=C/N(C)C)N(C)C	inconclusive: 25.1 µM [inhibitor, single point]	–
CN(C)c1ccc(C(=O)Nc2cc(C(F)(F)F)ccc2-n2cncn2)cc1	–	inactive: 20.2%
COc1cc(C(=O)Nc2nnc(-c3sccc3C)s2)cc(OC)c1OC	–	inactive: -3.33%
N#Cc1c(/N=C/c2ccco2)sc2c1CCCCC2	–	inactive: -20.9%
CCOC(=O)CN=C1CC(C)(C)CC2=C1Sc1ncnc(N(C)C)c1N2	inconclusive: 25.1 µM [inhibitor, partial curve]	–
N/C(=N\OC(=O)C1CCCCC1)c1cccc([N+](=O)[O-])c1	inconclusive: 25.1 µM [inhibitor, single point]	–
CCOC(=O)c1c(N2C(=O)C=CC2=O)sc(C)c1C	inconclusive: 0.316 µM [inhibitor, full curve]	–
O=C1CCCN1CCC1CCN(C2CC(=O)N(c3ccc(Cl)cc3)C2=O)CC1 (stereo not given)	inconclusive: 25.1 µM [inhibitor, single point]	–
Cc1nc(NC(=O)c2ccccc2)sc1-c1csc(Nc2ccc(Cl)cc2)n1	–	inactive: 22.9%
O=C(Nc1nnc(-c2ccco2)s1)C1CCCCC1	inconclusive: 1.26 µM [inhibitor, full curve]	–
Cc1[nH]n(-c2ccccc2)c(=O)c1/C=N/Nc1nncc(-c2ccccc2)n1	inconclusive: 39.8 µM [inhibitor, single point]	–
S=C(NCCC1=CCCCC1)Nc1ccccc1	inconclusive: 25.1 µM [inhibitor, single point]	–
CC(C)OC(=O)CSc1nc2ccccc2s1	–	inactive: -0.925%
CC1(C)CC(=O)C(=Cc2cn(-c3ccccc3)nc2-c2ccc(Cl)cc2)C(=O)C1	inconclusive: 3.16 µM [inhibitor, full curve]	–
Cc1ccc(C2CC(=O)Oc3cc4c(cc32)OCO4)cc1 (stereo not given)	inconclusive: 31.6 µM [inhibitor, partial curve]	–
COC(=O)CCC/C=C1/SCC(NC(=O)c2ccccc2)C1=O (stereo not given)	inconclusive: 10 µM [inhibitor, partial curve]	–
Cc1c(-c2ccccc2)nc(N)c(C#N)c1-c1ccco1	inconclusive: 12.6 µM [inhibitor, partial curve]	–
Cc1ccc(CSc2ncn(-c3ccccc3)n2)cc1	inconclusive: 20 µM [inhibitor, single point]	–
CC1CCC(C(=O)O)([C@H](Br)C(=O)O)CC1 (stereo not given in full)	–	inactive: -6.61% [at 11.4 µM]
CCOc1c(OC(C)=O)ccc(/C=C2\N=C(SCC)SC2=O)c1[N+](=O)[O-]	inconclusive: 25.1 µM [inhibitor, partial curve]	–
COC(=O)[C@@]1(Cc2ccc(F)cc2)[C@H]2c3cc(C(=O)N4CCCC4)n(Cc4ccc(C)o4)c3C[C@H]2CN1C(=O)c1ccccc1	inconclusive: 20 µM [inhibitor, partial curve]	–

Structure (SMILES)	Potency	activity change, negative = inhibition
COc1cc(C2CC(=O)N3CN(c4ccccc4C)CSC3=C2C#N)cc(OC)c1OC (stereo not given)	inconclusive: 25.1 µM [inhibitor, partial curve]	–
O=[N+]([O-])c1c(NCCCO)cc(Sc2nc3ccccc3s2)c2nonc12	inconclusive: 15.8 µM [inhibitor, partial curve]	–
COc1ccc2[nH]cc(CCNc3nc(-c4ccccc4OC)nc4ccccc34)c2c1	–	inactive: 10.4%
CCCCS/C(=C(/C#N)C(N)=O)c1cc2c([nH]1)CCCC2	inconclusive: 25.1 µM [inhibitor, partial curve]	–
CC(C)COC(=O)NCC12C=CC(O1)C1C(=O)N(c3ccc(Cl)cc3)C(=O)C12 (stereo not given)	inconclusive: 1.26 µM [inhibitor, full curve, poor fit]	–
Cc1cc(C)c(NC(=O)/C=C\C(=O)O)c([N+](=O)[O-])c1	inconclusive: 7.94 µM [inhibitor, partial curve]	–
Cc1ccc(-c2nc3ccccc3o2)cc1NC(=O)c1ccc2c(c1)OCO2	inconclusive: 12.6 µM [inhibitor, single point]	–
CCOc1ccccc1NC(=O)N1CCCC1C(=O)Nc1ccc(-n2cnnn2)c(C)c1 (stereo not given)	–	inactive: -3.28%
COc1ccc(N2CSC3=C(C#N)C(c4cccs4)CC(=O)N3C2)cc1 (stereo not given)	active: 20 µM	–
Oc1c(Cl)cc(Cl)c(Cl)c1Cl	–	inactive: -6.24%
O=c1cc(CO)oc(C(Nc2ccccn2)c2cccc(F)c2)c1O (stereo not given)	inconclusive: 7.94 µM [inhibitor, partial curve]	–
Cc1cccc(C)c1NC(=O)CSCC(=O)c1ccc(O)c(O)c1	inconclusive: 15.8 µM [inhibitor, partial curve]	–
CCCCCC(=O)Cc1cc(O)cc(O)c1C(=O)Oc1cc(CC(=O)CCCCC)c(C(=O)O)c(OC)c1	–	inactive: -2.62%
O=C(/C=C/c1ccco1)NC(=S)Nc1cccc(-c2nc3ccccc3o2)c1	inconclusive: 15.8 µM [inhibitor, partial curve]	–
O=C(c1ccco1)N1CCN(c2c(-c3ccccc3)c3cc(Cl)ccc3[nH]c2=O)CC1	inconclusive: 25.1 µM [inhibitor, partial curve]	–
CN1/C(=C\C=Nc2ccccc2)C(C)(C)c2ccccc21	–	inactive: -17.6%
COc1ccccc1CNC(=O)Nc1cccs1	inconclusive: 20 µM [inhibitor, partial curve]	–
Cc1ccccc1NC(=O)CSc1nc(N)c(C#N)c(-c2cccs2)c1C#N	inconclusive: 31.6 µM [inhibitor, single point]	–
COc1ccc(-n2c(SCC(=O)N3CCCCC3C)nnc2-c2cccnc2)cc1 (stereo not given)	–	inactive: -3.43%
Cc1cc(N)ccc1N1CCCC1	inconclusive: 10 µM [inhibitor, partial curve]	–
C#CCSC1=C(C#N)C(c2cccs2)C(C(=O)OCC)=C(C)N1 (stereo not given)	inconclusive: 20 µM [inhibitor, partial curve]	–
CCc1nnc(NS(=O)(=O)c2ccc(NC(=S)NC(=O)/C=C/c3ccc(C(C)C)cc3)cc2)s1	active: 25.1 µM	–

Source: PubChem BioAssay AID881 (National Center for Advancing Translational Sciences (NCATS), 2007)
